Measured values: PMC6919601, “Identification of Plasmodium dipeptidyl aminopeptidase allosteric inhibitors by high throughput screening” (PLoS ONE, 2019)
The campaign covered roughly 110,000 compounds. About 230 (0.21%) showed an effect of 50% or more. Some of the results follow.

What follows are molecules tested against DPAP1 (Plasmodium falciparum, UniProt Q8IIJ9) (assay: primary screen, percent inhibition; read by cleavage of a fluorogenic dipeptide substrate; higher = more effect of the substance).
DPAP1, sequence (Q8IIJ9 whole entry, looked up): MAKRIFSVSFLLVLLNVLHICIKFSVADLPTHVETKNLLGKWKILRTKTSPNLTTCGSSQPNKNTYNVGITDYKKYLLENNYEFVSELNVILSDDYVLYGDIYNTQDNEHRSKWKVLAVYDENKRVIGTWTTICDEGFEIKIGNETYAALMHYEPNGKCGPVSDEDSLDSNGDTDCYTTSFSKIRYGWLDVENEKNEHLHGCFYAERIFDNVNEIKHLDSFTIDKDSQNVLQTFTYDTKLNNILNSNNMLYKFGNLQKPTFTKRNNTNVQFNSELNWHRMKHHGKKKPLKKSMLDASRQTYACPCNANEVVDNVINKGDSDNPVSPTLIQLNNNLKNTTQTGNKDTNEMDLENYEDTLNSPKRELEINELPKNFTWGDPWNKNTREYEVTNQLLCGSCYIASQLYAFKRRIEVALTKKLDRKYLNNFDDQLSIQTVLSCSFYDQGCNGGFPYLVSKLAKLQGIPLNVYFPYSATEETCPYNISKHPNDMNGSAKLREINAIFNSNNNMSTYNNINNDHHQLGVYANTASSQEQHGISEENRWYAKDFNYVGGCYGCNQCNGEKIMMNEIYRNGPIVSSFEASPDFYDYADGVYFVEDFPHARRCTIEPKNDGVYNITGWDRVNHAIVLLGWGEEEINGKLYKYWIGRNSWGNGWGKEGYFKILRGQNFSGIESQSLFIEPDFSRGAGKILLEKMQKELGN
Set-up: species or system P. falciparum D10 trophozoite lysates; single well
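Further: 30 min substrate incubation versus DMSO and 10 µM JCP410 controls.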

| SMILES | % Inhibition @ 10 uM |
| --- | --- |
| Cc1ccc(NC(=O)CN(c2cc(C)ccc2C)S(C)(=O)=O)cc1 | 2.42% |
| c1ccc(N2CCN(CC3CCCCC3)CC2)cc1 | -0.446% |
| O=c1c2nnn(-c3ccc(F)cc3)c2ncn1C/C=C/c1ccccc1 | -0.431% |
| CC(=O)NCC1(c2ccccc2)CCOCC1 | 0.11% |
| Cc1oc2ncn3nc(CCn4c(C)nc5ccccc54)nc3c2c1C | -3% |
| C=CCc1cc(/C=C2/NC(=O)NC2=O)cc(OC)c1OCc1ccccc1 | 3.15% |
| Cc1ccc2[nH]c3c(c2c1)CCCC3NC(C)c1ccccc1 (stereo not shown) | -1.15% |
| COc1cc2nnc3[nH]nc(-c4ccccc4)c3c2cc1OC | 3.76% |
| CCC(CC)C(=O)Nc1nc(-c2ccccc2)cs1 | 6.91% |
| CCc1cccc(CC)c1NC(=O)c1cc(OC)cc(OC)c1 | -6.74% |
| COc1ccccc1/C=C(/NC(=O)c1ccccc1Cl)C(=O)N1CCNCC1 | -6.35% |
| COc1ccccc1CC(=O)Nc1cc(C)on1 | -5.28% |
| CN(Cc1ccccc1)S(=O)(=O)c1ccc2c(c1)OCC(C(=O)N1CCCC1)O2 (stereo not shown) | -6.11% |
| Cc1cc(O)n(-c2nc(-c3ccccc3)cc(-c3ccc(Br)cc3)n2)n1 | 6.53% |
| Cc1sc2ncn(CC(=O)NCCCC(=O)N3CCC(C)CC3)c(=O)c2c1C | 5.12% |
| Cc1ccc(NC(=O)c2c([N+](=O)[O-])cnn2C)cc1C | -4.43% |
| CCC(C)NC(=O)Cn1c(=O)n(CCc2ccccc2)c(=O)c2c(C)c(C)sc21 (stereo not shown) | -1.92% |
| Cc1ccccc1C1=N/C(=C\C(Cl)=C\c2ccccc2)C(=O)O1 | -0.769% |
| COc1cc2c(cc1OC)CN(Cc1ccc(C(=O)O)cc1)CC2 | -0.828% |
| CCN1C(=O)C(=CNc2cccc(Br)c2)C(=O)N(CC)C1=O | -2.87% |
| O=C(NC1CCCC1)c1cc(-c2ccccc2O)on1 | -0.591% |
| CC1CCCC(C)N1C(=O)c1ccc(F)c(F)c1 (stereo not shown) | 5.41% |

| SMILES | % Inhibition @ 10 uM |
| --- | --- |
| CC(=O)NC(C)c1nc2ccccc2n1Cc1c(F)cccc1Cl (stereo not shown) | -2.01% |
| NC(=O)c1sc2nc3c(cc2c1N)CCCC3 | 4.66% |
| O=C(/C=C/c1ccccc1)N1CCCc2ccccc21 | -5.68% |
| Cc1cc(C)c(S(=O)(=O)N2CCN(c3ccccc3)CC2)c(C)c1 | -7.17% |
| Cc1cc(C)c(S(=O)(=O)Nc2ccc(C)c(C)c2)c(C)c1 | -4.63% |
| Cc1ccc(CNC(=O)C2CCC(=O)N2CCc2ccccc2)cc1 (stereo not shown) | 1.62% |
| Oc1cc(CSc2ccc(Cl)cc2)nc(N2CCN(Cc3ccc4c(c3)OCO4)CC2)n1 | 1.51% |
| O=C(Nc1ccc2c(c1)oc1ccccc12)C1CCCCC1 | 2.55% |
| COCCNC(=O)C12CCC3CC(CC(C3)C1)C2 | 3.44% |
| Cc1nc2ccccc2n1-c1nn2c(C(F)(F)C(F)(F)F)nnc2c2ccccc12 | -0.834% |
| Cc1ccc(CCNC(=O)NC(C)(C)C)cc1 | -8.92% |
| COc1ccc(C2C(C#N)=C(N)OC3=C2C(=O)CCC3)cc1OCc1ccc(Cl)cc1 (stereo not shown) | 5.67% |
| Cc1cc(C)c(-n2cccc2CN)c(C)c1 | -2.77% |
| CC(C)c1ccc(NC(=O)C23CC4CC(CC(C4)C2)C3)cc1 | -0.192% |
| COC(=O)c1nc2n(n1)C(c1ccc(C)cc1)/C(=C(\O)OC1CCCCC1)C(C)=N2 (stereo not shown) | 4.77% |
| CCOc1ccc(C2C(C#N)=C(N)Oc3[nH]nc(-c4cccs4)c32)cc1OCC (stereo not shown) | -6.59% |
| COc1ccc(CN2CCN(Cc3ccccc3)CC2)c(OC)c1OC | -5.23% |
| CC1(C)CC2=Nc3ccccc3NC(c3cc4c(cc3Br)OCO4)C2=C(O)C1 (stereo not shown) | -3.27% |
| COC(=O)C1=C(C)N=C(C)/C(=C(/O)OC)C1c1ccc(OC)c(Br)c1 (stereo not shown) | -0.769% |
| Cc1ccc(S(=O)(=O)N2CCN(c3nc(NC(C)c4ccccc4)c4ccccc4n3)CC2)cc1 (stereo not shown) | 0.778% |
| O=C(NCc1ccc(F)cc1Cl)c1cc(O)nc2ccc(S(=O)(=O)N3CCCC3)cc12 | 0.387% |
| O=C(Nc1ccc2ccccc2c1)C1CC(=O)N(C2CCCCC2)C1 (stereo not shown) | -3.9% |

| SMILES | % Inhibition @ 10 uM |
| --- | --- |
| C=CCOC(=O)C1=C(C)N(C)C(=O)NC1c1cc(OC)ccc1OC (stereo not shown) | -5.92% |
| N#CC1=C(N)Oc2[nH]nc(-c3ccc(F)cc3)c2C1c1ccco1 (stereo not shown) | -2.45% |
| Cc1ccc(CNC(=O)c2cc3c(Cl)ccc4c3n2CCO4)o1 | 2.48% |
| CCOc1ccc2nc(N3CCC(C(=O)Nc4cc(-c5ccccc5Cl)no4)CC3)sc2c1 | -7.1% |
| CCc1cc(=O)oc2cc(OCC(=O)N(CC)CC)c(Cl)cc12 | 3.47% |
| CCCOc1cccc(C(=O)Nc2ccc(CN3CCOCC3)cc2)c1 | -0.0272% |
| COC(=O)C1=C(C)N(C)C(=O)NC1c1ccc(C)cc1 (stereo not shown) | 4.7% |
| O=C(O)c1cn(Cc2ccccc2)c2ccccc2c1=O | 3.91% |
| CC1=C(C(=O)OCCc2ccccc2)C(c2ccccc2OC(C)C)CC(=O)N1 (stereo not shown) | 4.86% |
| CCCCNC(=O)c1ccc(CS(=O)(=O)c2ccc(C)cc2)o1 | -5.19% |
| CC(C)C[C@H](NC(=O)OCc1ccccc1)C(=O)N[C@H](C#N)Cc1ccccc1 | 0.174% |
| Cc1ccc(C(=O)Nc2c3c(nn2-c2ccc(F)cc2)CS(=O)(=O)C3)cc1C | 8.19% |
| NS(=O)(=O)c1ccc(CCNC(=O)C2=Cc3sc4c(c3CS2)CCCC4)cc1 | 12% |
| Cc1cccc(-c2nnc3sc(NC(=O)COc4ccccc4)nn23)c1 | 1.68% |
| O=C(Nc1cccnc1Cl)c1cnn2c1NC(c1ccccc1)CC2C(F)(F)F (stereo not shown) | -4.75% |
| CC(=O)NCCNC(=O)c1ccc2c(c1)nc(S)n1c3ccccc3nc21 | 1.58% |
| CSc1nc(-c2cccc(Cl)c2)nc2c1Cc1c(CO)cnc(C)c1O2 | 6.1% |
| COc1cccc(CN2CCN(Cc3cccc(F)c3)CC2)c1 | 2.54% |
| CCc1c(C)nc2ccc(C)cc2c1Cl | -5.34% |
| N#C/C(=C\c1ccc(Br)o1)c1nc(-c2ccc(Br)cc2)cs1 | -4.02% |
